Measurements reported in PubChem BioAssay (NCATS).
“And” between values parts separate entries of the source, which are not always exact repeats. Identical values can stand only once. Inconclusive results, whose numbers are uncertain, are shown with a selection of clear calls. Where the call is inconclusive, the potency comes from a doubtful curve fit. The source made the active and inactive calls. Calls follow the shape of the dose curve; as a rule, active = well fitted curve in the direction sought with a large enough effect; inconclusive = small, poorly fitted or top-dose-only effect, or another doubt; inactive = no such curve, though single readings can be large; an effect the other way counts as inactive or inconclusive.

Assays:
[1] = Viability qHTS for spleen associated tyrosine kinase inhibitor (SYKi) naive MV4-11 cells (AID 1963823); conditions: MV4-11 AML viability, CellTiter-Glo luminescence, 72 h; series mostly up to 45 µM; also: nearly all actives have a fitted effect of over 40% in size
How it was run: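 CellTiter-Glo luminescence, 10 min room-temperature incubation, gave viability. Cells: naive MV4-11 (500/well), treated 72 hr at 37 C, 5% CO2.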

[2] = Quantitative highthroughput screen to assess conditional lethalithy of NOMO1 cells grown in RPMI1640 with untreated serum (RPMI+s) (AID 1963876); conditions: NOMO1 AML cells in RPMI+serum, CellTiter-Glo viability, 48 h; viability: at 45.8 µM (top of the series); also: nearly all actives have a fitted effect of over 35% in size
How it was run: (§1)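 Each medium arm—HPLM with 10% dialyzed FBS, or RPMI1640 with 5 mM glucose and 10% untreated or dialyzed FBS—was screened against an 11-point, 3-fold compound titration for 48 h at 37 °C, with CellTiter-Glo luminescence as endpoint.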

[3] = Quantitative highthroughput screen to assess conditional lethalithy of SEM cells grown in Human Plasma-Like Medium with dialyzed fetal bovine serum (HPLM+ds) (AID 1963882); also: nearly all actives have a fitted effect of over 35% in size
How it was run: as §1

[4] = Quantitative highthroughput screen to assess conditional lethalithy of P12 Ichikawa cells grown in Human Plasma-Like Medium with dialyzed fetal bovine serum (HPLM+ds) (AID 1963879); conditions: Potency: viability; also: nearly all actives have a fitted effect of over 35% in size
How it was run: as §1

[5] = Quantitative highthroughput screen to assess conditional lethalithy of SEM cells grown in RPMI1640 with dialyzed fetal bovine serum (RPMI+ds) (AID 1963884); conditions: SEM B-ALL cells, RPMI+dialyzed FBS, CellTiter-Glo viability, 48 h; viability: at 45.8 µM (top of the series); also: nearly all actives have a fitted effect of over 35% in size
How it was run: as §1

[6] = Quantitative highthroughput screen to assess conditional lethalithy of NOMO1 cells grown in RPMI1640 with dialyzed fetal bovine serum (RPMI+ds) (AID 1963877); also: nearly all actives have a fitted effect of over 30% in size
How it was run: as §1

[7] = Quantitative highthroughput screen to assess conditional lethalithy of NOMO1 cells grown in Human Plasma-Like Medium with dialyzed fetal bovine serum (HPLM+ds) (AID 1963878); conditions: NOMO1 AML cells in HPLM+ds, CellTiter-Glo viability, 48 h; viability: at 45.8 µM (top of the series); also: nearly all actives have a fitted effect of over 35% in size
How it was run: as §1

[8] = Quantitative highthroughput screen to assess conditional lethalithy of P12 Ichikawa cells grown in RPMI1640 with dialyzed fetal bovine serum (RPMI+ds) (AID 1963880); conditions: Potency: P12-Ichikawa viability; also: nearly all actives have a fitted effect of over 35% in size
How it was run: as §1

[9] = Quantitative highthroughput screen to assess conditional lethalithy of P12 Ichikawa cells grown in RPMI1640 with untreated serum (RPMI+s) (AID 1963881); conditions: Potency: viability; also: nearly all actives have a fitted effect of over 35% in size
How it was run: as §1

[10] = Quantitative highthroughput screen to assess conditional lethalithy of SEM cells grown in RPMI1640 with unreated serum (RPMI+s) (AID 1963883); conditions: SEM B-ALL cells, CellTiter-Glo viability, 48 h; viability: at 45.8 µM (top of the series); also: nearly all actives have a fitted effect of over 35% in size
How it was run: as §1

[11] = Cellular viability qHTS for adrenocortical cancer (ACC) cell line SW-13 (AID 1963989); conditions: SW-13 ACC cells viability, CellTiter-Glo, 48 h; activity (max response): stronger effect = lower value; also: nearly all actives have a fitted effect of over 65% in size
How it was run: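 Luminescent ATP read-out (CellTiter-Glo, 20 min at room temperature) measured metabolically competent SW-13 cells after 48 h compound treatment. Final concentrations spanned up to 46 uM; bortezomib served as positive control.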

[12] = Cellular viability qHTS for adrenocortical cancer (ACC) cell line NCI-H295R (AID 1963990); conditions: CellTiter-Glo ATP luminescence, 48 h; series mostly up to 46.1 µM; also: nearly all actives have a fitted effect of over 60% in size
How it was run: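 IC50 and maximal efficacy derive from four-parameter logistic modelling of titration curves, with reads scaled between DMSO-only wells (0%) and doxorubicin hydrochloride (100% inhibition). Compounds spanned up to 46 uM over 48 h.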
Potency is read from the fitted curve at half-maximal effect; tags tell the direction and shape of the fitted curve.

SMILES | Potency [1] | Potency [2] | Potency [3] | Potency [4] | Potency [5] | Potency [6] | Potency [7] | Potency [8] | Potency [9] | Potency [10] | Potency [11] | Potency [12]
CC(C)C[C@H](NC(=O)CNC(=O)c1cc(Cl)ccc1Cl)B1OC(=O)CC(CC(=O)O)(C(=O)O)O1 (some centres undefined) | active: 0.148 µM | active: 0.372 µM | active: 0.118 µM |  |  |  |  |  |  |  |  | 
CCn1cc(C(=O)O)c(=O)c2cc(F)c(N3CCNC(C)C3)c(F)c21 (centres undefined) | inconclusive: 4.2 nM [cytotoxic, full curve, poor fit] and inactive | inactive |  | inactive | inactive |  |  |  |  |  |  | 
Nc1nc2[nH]cc(CCc3ccc(C(=O)N[C@@H](CCC(=O)O)C(=O)O)cc3)c2c(=O)[nH]1 | inconclusive: 0.209 µM [cytotoxic, full curve] |  | inconclusive: 0.662 µM [cytotoxic, full curve] | inconclusive: 1.66 µM [cytotoxic, full curve] | inconclusive: 1.48 µM [cytotoxic, full curve] | inconclusive: 2.35 µM [cytotoxic, full curve] | inconclusive: 0.743 µM [cytotoxic, full curve] | inconclusive: 2.96 µM [cytotoxic, full curve] | inconclusive: 2.96 µM [cytotoxic, full curve] | inconclusive: 4.69 µM [cytotoxic, full curve, poor fit] | inconclusive: 12.6 µM [cytotoxic, partial curve] | active: 3.16 µM
CNc1nc(Nc2cnn([C@H]3CCN(C4COC4)C[C@@H]3F)c2Cl)ncc1C(F)(F)F | active: 1.3 µM |  | inconclusive: 2.95 µM [cytotoxic, full curve] | inconclusive: 1.32 µM [cytotoxic, full curve] | active: 2.34 µM | inconclusive: 3.71 µM [cytotoxic, full curve] | inconclusive: 0.105 µM [cytotoxic, full curve] | inconclusive: 2.95 µM [cytotoxic, full curve] | inconclusive: 3.71 µM [cytotoxic, full curve] | inconclusive: 0.186 µM [cytotoxic, full curve] |  | 
CCOC(=O)[C@@]1(CCCCCCOc2ccc(Cl)cc2)CO1 | inconclusive: 20.9 µM [cytotoxic, partial curve] | inconclusive: 20.9 µM [cytotoxic, partial curve] | inconclusive: 13.2 µM [cytotoxic, partial curve] |  |  |  |  | inconclusive: 37.1 µM [cytotoxic, single point] | inconclusive: 33.1 µM [cytotoxic, single point] |  |  | inconclusive: 35.5 µM [cytotoxic, single point]
CCn1c(-c2nonc2N)nc2cnc(Oc3cccc(NC(=O)c4ccc(OCCN5CCOCC5)cc4)c3)cc21 | active: 517 nM and active: 934 nM | active: 5.9 µM | active: 13.2 µM |  |  |  |  | inconclusive: 6.62 µM [cytotoxic, full curve] | inconclusive: 10.5 µM [cytotoxic, partial curve] | inconclusive: 11.8 µM [cytotoxic, partial curve] | inconclusive: 2.82 µM [cytotoxic, full curve] | inconclusive: 10 µM [cytotoxic, full curve, poor fit]
O=C1CCCC2=C1C(c1[nH]ncc1Cl)N=C(Nc1nc3ccccc3o1)N2 (centres undefined) | inconclusive: 14.6 µM [cytotoxic, partial curve] and active: 8.33 µM |  |  | inconclusive: 37.2 µM [cytotoxic, single point] | inconclusive: 26.4 µM [cytotoxic, single point] | inactive | active: 18.7 µM | inconclusive: 37.2 µM [cytotoxic, single point] | inconclusive: 37.2 µM [cytotoxic, single point] | inconclusive: 20.9 µM [cytotoxic, single point] |  | 
O=C(N[C@@H](c1ccccc1)[C@@H]1CCCCN1)c1cccc(C(F)(F)F)c1Cl | active: 16.6 µM | inconclusive: 23.5 µM [cytotoxic, single point] | inconclusive: 20.9 µM [cytotoxic, partial curve, poor fit] |  | inconclusive: 26.4 µM [cytotoxic, single point] |  |  |  |  | inconclusive: 16.6 µM [cytotoxic, partial curve, poor fit] |  | 
